Results taken from the supplement of paper PMC8728848.
Some of the results follow.

Columns and labels:
Experiment in all cases: glycan array binding signal (z-score within array); higher = stronger binding
Conditions in all cases: glycan notation: IUPAC condensed, linker removed
[1] = target: Fuc(a1-2)Gal(b1-4)GlcNAc(b1-3)Gal(b1-4)GlcNAc(b1-2)Man(a1-3)[Fuc(a1-2)Gal(b1-4)GlcNAc(b1-3)Gal(b1-4)GlcNAc(b1-2)Man(a1-6)]Man(b1-4)GlcNAc(b1-4)GlcNAc
How it was run: (§1)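 The Consortium for Functional Glycomics database supplied 3228 glycan arrays, of which those lacking an available protein sequence were dropped. The binding signal, a within-array Z-score, was averaged across arrays of the same protein sequence and across linkers. Negative scores can be read as non-binding.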

[2] = target: Fuc(a1-2)Gal(b1-4)GlcNAc(b1-3)Gal(b1-4)GlcNAc(b1-3)Gal(b1-4)GlcNAc
How it was run: as §1

[3] = target: Fuc(a1-2)Gal(b1-4)GlcNAc(b1-3)GalNAc
How it was run: as §1

[4] = target: Fuc(a1-2)Gal(b1-4)GlcNAc(b1-3)[Fuc(a1-2)Gal(b1-4)GlcNAc(b1-6)]GalNAc
How it was run: as §1

[5] = target: Fuc(a1-2)Gal(b1-4)GlcNAc(b1-3)[Fuc(a1-3)[Gal(b1-4)]GlcNAc(b1-6)]Gal(b1-4)Glc
How it was run: as §1

[6] = target: Fuc(a1-2)Gal(b1-4)GlcNAc(b1-6)GalNAc
How it was run: as §1

[7] = target: Fuc(a1-2)Gal(b1-4)GlcNAc6S
How it was run: as §1

[8] = target: Fuc(a1-2)Gal(b1-4)[Fuc(a1-3)]GlcNAc
How it was run: as §1

[9] = target: Fuc(a1-2)Gal(b1-4)[Fuc(a1-3)]GlcNAc(b1-2)Man(a1-3)[Fuc(a1-2)Gal(b1-4)[Fuc(a1-3)]GlcNAc(b1-2)Man(a1-6)]Man(b1-4)GlcNAc(b1-4)[Fuc(a1-6)]GlcNAc
How it was run: as §1

[10] = target: Fuc(a1-2)Gal(b1-4)[Fuc(a1-3)]GlcNAc(b1-2)[Fuc(a1-2)Gal(b1-4)[Fuc(a1-3)]GlcNAc(b1-4)]Man(a1-3)[Fuc(a1-2)Gal(b1-4)[Fuc(a1-3)]GlcNAc(b1-2)Man(a1-6)]Man(b1-4)GlcNAc(b1-4)GlcNAc
How it was run: as §1

[11] = target: Fuc(a1-2)Gal(b1-4)[Fuc(a1-3)]GlcNAc(b1-3)Gal(b1-4)[Fuc(a1-3)]GlcNAc
How it was run: as §1

[12] = target: Fuc(a1-2)Gal(b1-4)[Fuc(a1-3)]GlcNAc(b1-3)Gal(b1-4)[Fuc(a1-3)]GlcNAc(b1-3)Gal(b1-4)[Fuc(a1-3)]GlcNAc
How it was run: as §1

[13] = target: Fuc(a1-2)Gal(b1-4)[Fuc(a1-3)]GlcNAc(b1-3)GalNAc
How it was run: as §1

[14] = target: Fuc(a1-2)Gal(b1-4)[Fuc(a1-3)]GlcNAc(b1-3)[Neu5Ac(a2-6)Gal(b1-4)GlcNAc(b1-6)]Gal(b1-4)Glc
How it was run: as §1

[15] = target: Fuc(a1-2)Gal3S(b1-4)GlcNAc
How it was run: as §1

[16] = target: Fuc(a1-2)Gal6S(b1-3)GlcNAc
How it was run: as §1

[17] = target: Fuc(a1-2)Gal6S(b1-3)GlcNAc6S
How it was run: as §1

Fuc(a1-2)Gal6S(b1-4)Glc = target: Fuc(a1-2)Gal6S(b1-4)Glc
How it was run: as §1

[18] = target: Fuc(a1-2)Gal6S(b1-4)Glc6S
How it was run: as §1

Fuc(a1-2)[Gal(a1-3)]Gal = target: Fuc(a1-2)[Gal(a1-3)]Gal
How it was run: as §1

[19] = target: Fuc(a1-2)[Gal(a1-3)]Gal(b1-3)GalNAc
How it was run: as §1

[20] = target: Fuc(a1-2)[Gal(a1-3)]Gal(b1-3)GalNAc(b1-3)Gal(a1-4)Gal(b1-4)Glc
How it was run: as §1

[21] = target: Fuc(a1-2)[Gal(a1-3)]Gal(b1-3)GlcNAc
How it was run: as §1

[22] = target: Fuc(a1-2)[Gal(a1-3)]Gal(b1-3)GlcNAc(b1-2)Man(a1-3)[Fuc(a1-2)[Gal(a1-3)]Gal(b1-3)GlcNAc(b1-2)Man(a1-6)]Man(b1-4)GlcNAc(b1-4)GlcNAc
How it was run: as §1

[23] = target: Fuc(a1-2)[Gal(a1-3)]Gal(b1-3)GlcNAc(b1-2)Man(a1-3)[Fuc(a1-2)[Gal(a1-3)]Gal(b1-3)GlcNAc(b1-2)Man(a1-6)]Man(b1-4)GlcNAc(b1-4)[Fuc(a1-6)]GlcNAc
How it was run: as §1

[24] = target: Fuc(a1-2)[Gal(a1-3)]Gal(b1-3)GlcNAc(b1-3)GalNAc
How it was run: as §1

[25] = target: Fuc(a1-2)[Gal(a1-3)]Gal(b1-3)GlcNAc(b1-6)GalNAc
How it was run: as §1

[26] = target: Fuc(a1-2)[Gal(a1-3)]Gal(b1-4)Glc
How it was run: as §1

[27] = target: Fuc(a1-2)[Gal(a1-3)]Gal(b1-4)GlcNAc
How it was run: as §1

[28] = target: Fuc(a1-2)[Gal(a1-3)]Gal(b1-4)GlcNAc(b1-2)Man
How it was run: as §1

B1: GSL-I-B4 (Griffonia simplicifolia) (protein)
chain: NFWSDVEDSIIFQGDANTTAGTLQLCKTNQYGTPLQWSAGRALYSDPVQLWDNKTESVASFYTEFTFFLKITGNGPADGLAFFLAPPDSDVKDAGEYLGLFNKSTATQPSKNQVVAVEFDTWTNPNFPEPSYRHIGINVNSIVSVATKRWEDSDIFSGKIATARISYDGSAEILTVVLSYPDGSDYILSHSVDMRQNLPESVRVGISASTGNNQFLTVYILSWRFSSNLQSTSVKAAMEPEITRTVV
- glycan array binding signal (z-score) [1]: -0.161
- glycan array binding signal (z-score) [2]: -0.148
- glycan array binding signal (z-score) [3]: -0.123
- glycan array binding signal (z-score) [4]: -0.183
- glycan array binding signal (z-score) [5]: -0.143
- glycan array binding signal (z-score) [6]: -0.172
- glycan array binding signal (z-score) [7]: -0.098
- glycan array binding signal (z-score) [8]: -0.131
- glycan array binding signal (z-score) [9]: -0.202
- glycan array binding signal (z-score) [10]: -0.15
- glycan array binding signal (z-score) [11]: -0.133
- glycan array binding signal (z-score) [12]: -0.084
- glycan array binding signal (z-score) [13]: -0.11
- glycan array binding signal (z-score) [14]: -0.18
- glycan array binding signal (z-score) [15]: -0.17
- glycan array binding signal (z-score) [16]: -0.128
- glycan array binding signal (z-score) [17]: -0.239
- glycan array binding signal (z-score) (Fuc(a1-2)Gal6S(b1-4)Glc): -0.165
- glycan array binding signal (z-score) [18]: -0.114
- glycan array binding signal (z-score) (Fuc(a1-2)[Gal(a1-3)]Gal): 1.08
- glycan array binding signal (z-score) [19]: 0.853
- glycan array binding signal (z-score) [20]: 0.506
- glycan array binding signal (z-score) [21]: 0.776
- glycan array binding signal (z-score) [22]: 1.74
- glycan array binding signal (z-score) [23]: 0.077
- glycan array binding signal (z-score) [24]: 0.11
- glycan array binding signal (z-score) [25]: -0.033
- glycan array binding signal (z-score) [26]: 0.213
- glycan array binding signal (z-score) [27]: 1.62
- glycan array binding signal (z-score) [28]: 0.119
